Data: paper PMC10721220
These are yes or no findings as the source states them, for the method shown. Binding seen in cells or lysates may run through a third protein. Some results given as binding are weak or reduced against the parent protein; the word gives no strength. For some of these results: Tags and fused reporters may be left off the sequences shown. Blank lines part the entries; values can stand above or below the molecule they belong to.

Amino acid sequences for entries named in this document (tags omitted).
UniProt Q0VGT2: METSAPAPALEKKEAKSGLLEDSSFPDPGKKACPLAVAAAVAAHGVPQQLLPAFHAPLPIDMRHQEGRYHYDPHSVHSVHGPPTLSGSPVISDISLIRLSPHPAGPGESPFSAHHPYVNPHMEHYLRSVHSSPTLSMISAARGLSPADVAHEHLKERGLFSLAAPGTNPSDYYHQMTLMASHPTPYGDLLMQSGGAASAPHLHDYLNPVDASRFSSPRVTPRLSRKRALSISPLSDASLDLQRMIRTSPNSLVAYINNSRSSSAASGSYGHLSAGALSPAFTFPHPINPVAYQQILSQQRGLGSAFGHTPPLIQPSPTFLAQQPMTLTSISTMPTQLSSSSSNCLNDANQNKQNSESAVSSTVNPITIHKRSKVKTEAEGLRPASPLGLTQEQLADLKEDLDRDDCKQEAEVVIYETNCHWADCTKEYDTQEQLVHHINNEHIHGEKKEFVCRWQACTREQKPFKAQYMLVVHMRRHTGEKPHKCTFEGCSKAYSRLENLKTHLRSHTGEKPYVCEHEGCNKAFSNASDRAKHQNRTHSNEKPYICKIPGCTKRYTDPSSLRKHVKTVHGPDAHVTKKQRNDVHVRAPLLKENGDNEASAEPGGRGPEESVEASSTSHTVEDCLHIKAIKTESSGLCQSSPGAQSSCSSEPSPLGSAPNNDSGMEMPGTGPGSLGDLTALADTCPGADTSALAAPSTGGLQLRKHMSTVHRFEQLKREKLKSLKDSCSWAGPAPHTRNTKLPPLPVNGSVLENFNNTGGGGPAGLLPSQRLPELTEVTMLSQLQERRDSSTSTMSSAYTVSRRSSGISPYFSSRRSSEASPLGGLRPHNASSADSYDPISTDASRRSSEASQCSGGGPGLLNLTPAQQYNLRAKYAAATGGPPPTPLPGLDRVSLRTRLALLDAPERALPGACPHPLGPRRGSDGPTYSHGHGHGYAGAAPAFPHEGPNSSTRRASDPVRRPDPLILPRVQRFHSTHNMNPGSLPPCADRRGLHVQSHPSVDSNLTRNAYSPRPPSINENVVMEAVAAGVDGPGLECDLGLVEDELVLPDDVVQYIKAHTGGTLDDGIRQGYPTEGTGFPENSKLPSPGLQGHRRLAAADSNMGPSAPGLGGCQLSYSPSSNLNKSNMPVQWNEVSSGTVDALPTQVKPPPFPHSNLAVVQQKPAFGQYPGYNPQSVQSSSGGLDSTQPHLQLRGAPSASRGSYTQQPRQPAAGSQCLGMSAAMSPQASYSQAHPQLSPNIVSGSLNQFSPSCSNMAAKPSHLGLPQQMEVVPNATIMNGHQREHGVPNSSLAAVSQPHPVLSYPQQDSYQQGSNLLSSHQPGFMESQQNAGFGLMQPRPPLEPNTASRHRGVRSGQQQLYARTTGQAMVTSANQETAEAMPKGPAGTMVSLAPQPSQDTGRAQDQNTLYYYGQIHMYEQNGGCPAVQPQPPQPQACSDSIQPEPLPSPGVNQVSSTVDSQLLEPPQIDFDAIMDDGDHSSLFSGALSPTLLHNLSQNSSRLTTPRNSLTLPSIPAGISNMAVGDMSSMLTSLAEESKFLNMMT

How the values were obtained:
Experiment in all cases: co-IP; HEK293T cells transfected 48 hr with the tagged constructs; cleared lysates incubated with Myc, HA or Flag antibody, protein A-Sepharose beads, 4°C; western blot; for Stk36/Gli2 with control or Ulk4 shRNA
[1] = biological target: C-terminal HA-tagged human Ulk4 (hUlk4-HA) (human) (UniProt Q96C45)
[2] = biological target: T1, Fg-Stk36C (regulatory domain of Stk36) (human) (UniProt Q9NRP7)
T1 sequence: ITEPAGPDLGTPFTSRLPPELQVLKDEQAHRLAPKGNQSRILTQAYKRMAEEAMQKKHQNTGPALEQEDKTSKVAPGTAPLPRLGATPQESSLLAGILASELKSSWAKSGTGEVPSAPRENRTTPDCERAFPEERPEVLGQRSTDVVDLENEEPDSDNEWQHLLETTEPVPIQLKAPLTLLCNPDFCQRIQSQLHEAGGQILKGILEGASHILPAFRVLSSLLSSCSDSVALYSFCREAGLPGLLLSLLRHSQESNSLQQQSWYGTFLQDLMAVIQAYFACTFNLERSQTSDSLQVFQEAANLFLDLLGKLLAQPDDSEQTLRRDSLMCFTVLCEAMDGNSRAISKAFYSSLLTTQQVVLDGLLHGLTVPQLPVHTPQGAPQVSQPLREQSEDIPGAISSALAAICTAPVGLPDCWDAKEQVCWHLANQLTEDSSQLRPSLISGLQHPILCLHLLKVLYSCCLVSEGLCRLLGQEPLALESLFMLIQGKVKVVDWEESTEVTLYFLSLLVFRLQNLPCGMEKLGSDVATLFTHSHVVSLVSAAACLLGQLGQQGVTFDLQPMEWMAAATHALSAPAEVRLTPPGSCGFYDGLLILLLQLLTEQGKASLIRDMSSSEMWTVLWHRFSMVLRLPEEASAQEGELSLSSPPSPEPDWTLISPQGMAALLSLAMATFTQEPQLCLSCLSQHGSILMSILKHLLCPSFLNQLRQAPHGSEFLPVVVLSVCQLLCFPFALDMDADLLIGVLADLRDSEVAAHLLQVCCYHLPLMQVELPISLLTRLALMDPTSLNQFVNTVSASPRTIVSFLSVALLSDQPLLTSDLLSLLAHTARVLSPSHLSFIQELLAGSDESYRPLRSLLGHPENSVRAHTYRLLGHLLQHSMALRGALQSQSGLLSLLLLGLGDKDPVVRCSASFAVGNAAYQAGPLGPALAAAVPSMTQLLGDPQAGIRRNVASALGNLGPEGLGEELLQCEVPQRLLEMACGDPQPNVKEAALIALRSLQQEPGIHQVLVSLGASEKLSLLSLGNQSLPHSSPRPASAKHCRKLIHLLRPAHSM

[3] = biological target: T2, hUlk4C-HA (451-1275, contains the C-terminal regulatory domain) (human) (UniProt Q96C45)
T2 sequence: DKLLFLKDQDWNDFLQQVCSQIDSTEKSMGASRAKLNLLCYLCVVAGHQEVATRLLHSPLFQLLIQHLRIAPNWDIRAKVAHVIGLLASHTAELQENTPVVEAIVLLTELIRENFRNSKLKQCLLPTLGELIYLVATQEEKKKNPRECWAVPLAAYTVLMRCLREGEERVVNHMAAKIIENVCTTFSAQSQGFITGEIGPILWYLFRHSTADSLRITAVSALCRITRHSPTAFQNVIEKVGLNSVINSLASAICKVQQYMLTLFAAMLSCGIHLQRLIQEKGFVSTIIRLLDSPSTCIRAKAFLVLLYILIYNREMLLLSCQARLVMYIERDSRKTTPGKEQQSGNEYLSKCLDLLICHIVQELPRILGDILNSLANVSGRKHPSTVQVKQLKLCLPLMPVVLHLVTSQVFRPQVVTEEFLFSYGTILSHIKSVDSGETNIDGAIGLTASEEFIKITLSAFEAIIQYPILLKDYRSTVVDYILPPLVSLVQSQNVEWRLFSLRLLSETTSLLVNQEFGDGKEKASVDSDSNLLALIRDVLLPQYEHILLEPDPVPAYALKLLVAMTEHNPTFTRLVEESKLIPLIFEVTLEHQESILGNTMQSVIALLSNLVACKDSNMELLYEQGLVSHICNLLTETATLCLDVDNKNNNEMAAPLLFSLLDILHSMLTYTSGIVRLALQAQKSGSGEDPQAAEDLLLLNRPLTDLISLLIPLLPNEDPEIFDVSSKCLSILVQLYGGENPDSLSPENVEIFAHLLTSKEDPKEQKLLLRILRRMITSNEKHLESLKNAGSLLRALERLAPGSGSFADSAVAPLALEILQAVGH

[4] = biological target: T3, hUlk4N-HA (aa 1-450, contains the pseudokinase domain) (human) (UniProt Q96C45)
T3 sequence: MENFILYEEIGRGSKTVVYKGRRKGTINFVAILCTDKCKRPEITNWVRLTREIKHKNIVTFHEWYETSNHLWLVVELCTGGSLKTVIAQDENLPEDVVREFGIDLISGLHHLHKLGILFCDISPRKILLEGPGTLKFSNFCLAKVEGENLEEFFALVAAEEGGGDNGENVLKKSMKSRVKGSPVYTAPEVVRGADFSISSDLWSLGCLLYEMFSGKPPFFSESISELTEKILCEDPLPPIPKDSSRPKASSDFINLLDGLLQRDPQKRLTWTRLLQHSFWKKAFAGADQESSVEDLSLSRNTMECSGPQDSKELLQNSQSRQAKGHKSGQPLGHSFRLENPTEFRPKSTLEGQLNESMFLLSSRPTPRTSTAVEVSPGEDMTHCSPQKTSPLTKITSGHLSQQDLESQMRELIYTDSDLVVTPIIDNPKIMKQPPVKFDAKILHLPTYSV

Molecule: Fg-Stk36N (kinase domain of Stk36, aa1-260) (from UniProt Q9NRP7 1-260) (domain or fragment)
binding [1]: binds

Molecule: Myc-tagged Gli2 (Myc-Gli2) (from UniProt Q0VGT2 1-1544)
binding [1]: binds | binding [2]: no binding | binding [3]: binds | binding [4]: no binding

Molecule: N-terminal CFP-tagged Stk36 (CFP-Stk36) (from UniProt Q9NRP7 1-1315)
binding [1]: binds

Molecule: N-terminally 3XFg-tagged human Stk36 (Fg-Stk36) (from UniProt Q9NRP7 1-1315) (enzyme)
binding [1]: binds | binding [3]: no binding | binding [4]: binds

Now from value to molecule:

binding [1]: no binding
B1: Fg-Stk36C (regulatory domain of Stk36) (domain or fragment, UniProt Q9NRP7 261-1315)
chain: T1 sequence

binding [1]: binds | binding [3]: binds | binding [4]: no binding
B2: Flag (Fg)-tagged Sufu (Fg-Sufu) (protein, UniProt Q9Z0P7 1-484)
chain: MAELRPSVAPGPAAPPASGPSAPPAFASLFPPGLHAIYGECRRLYPDQPNPLQVTAIVKYWLGGPDPLDYVSMYRNMGSPSANIPEHWHYISFGLSDLYGDNRVHEFTGTDGPSGFGFELTFRLKRETGESAPPTWPAELMQGLARYVFQSENTFCSGDHVSWHSPLDNSESRIQHMLLTEDPQMQPVRTPFGVVTFLQIVGVCTEELHSAQQWNGQGILELLRTVPIAGGPWLITDMRRGETIFEIDPHLQERVDKGIETDGSNLSGVSAKCAWDDLSRPPEDEEDSRSICLGTQPRRLSGKDTEQIRETLRRGLEINSKPVLPPINSQRQNGLTHDRAPSRKDSLGSDSSTAIIPHELIRTRQLESVHLKFNQESGALIPLCLRGRLLHGRHFTYKSITGDMAITFVSTGVEGAFATEEHPYAAHGPWLQILLTEEFVEKMLEDLEDLTSPEEFKLPKEYSWPEKKLKVSILPDVVFDSPLH
